Results taken from the supplement of paper PMC4604168 (melanoma cell lines).
This is one part of the list. Most values come without repeats; read them as rough.

Assays:
Assay in all cases: cell count relative to DMSO control; melanoma cells; higher = more viable cells
Conditions in all cases: library dose: standard library concentration; 72 h
G361 = tested on: G361
IPC-298 = tested on: IPC-298
IST-MEL1 = tested on: IST-MEL1
LB2518-MEL = tested on: LB2518-MEL
LOXIMVI = tested on: LOXIMVI
MEL-HO = tested on: MEL-HO
MZ2-MEL = tested on: MZ2-MEL
MeWo = tested on: MeWo
RPMI7951 = tested on: RPMI7951
RVH-421 = tested on: RVH-421
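Also: cells treated in 1,536-well plates, then fixed and DAPI-stained, with nuclei counted from automated high-throughput microscope images.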

Structure (SMILES)	cell count (G361) [%]	cell count (IPC-298) [%]	cell count (IST-MEL1) [%]	cell count (LB2518-MEL) [%]	cell count (LOXIMVI) [%]	cell count (MEL-HO) [%]	cell count (MZ2-MEL) [%]	cell count (MeWo) [%]	cell count (RPMI7951) [%]	cell count (RVH-421) [%]
COCC[n+]1c2c(n(Cc3cnccn3)c1C)C(=O)c1ccccc1C2=O + CO[C@@H]1[C@H](N(C)C(=O)c2ccccc2)C[C@H]2O[C@]1(C)n1c3ccccc3c3c4c(c5c6ccccc6n2c5c31)C(=O)NC4 [Midostaurin] (first compound 0.002 µM, partner dose 0.4 µM)	44.7	20.2	45.2	10.1	54.1	64.6	12.3	21.8	37.6	108
O=C(CCCCCCC(=O)Nc1ccccc1)NO [vorinostat] + c1cc(-c2cnn3cc(-c4ccc(OCCN5CCCCC5)cc4)cnc23)ccn1 [Dorsomorphin] (first compound 0.4 µM, partner dose 2 µM)	40.8	83.9	98.1	87.6	85	79.4	72.7	65.9	61.1	90.5
Nc1cccc2c1CN(C1CCC(=O)NC1=O)C2=O (stereo not given) [lenalidomide] + Cc1cc([N+](=O)[O-])ccc1NS(=O)(=O)c1cc(Cl)ccc1Cl [FH535] (first compound 5 µM, partner dose 5 µM)	65.5	63.3	64	87.6	72.9	65.8	78.5	84.1	96	75.6
Cn1c(Nc2ccc(C(F)(F)F)cc2)nc2cc(Oc3ccnc(-c4ncc(C(F)(F)F)[nH]4)c3)ccc21 + COc1ccc2c(c1)CCC1C2CCC2(C)C(NCCCCCCN3C(=O)C=CC3=O)CCC12 [U73122] (first compound 0.4 µM, partner dose 2 µM)	22.8	51.7	81.3	27.6	56	61.7	71.7	30.5	21.4	39.3
O=C(CCCCCCC(=O)Nc1ccccc1)NO [vorinostat] + CO[C@@H]1[C@H](N(C)C(=O)c2ccccc2)C[C@H]2O[C@]1(C)n1c3ccccc3c3c4c(c5c6ccccc6n2c5c31)C(=O)NC4 [Midostaurin] (first compound 0.4 µM, partner dose 0.4 µM)	28.2	48.6	62.2	51.5	41.6	74.7	48.6	67.4	21.7	57.4
OCc1c[nH]c2ccccc12 [Indole-3-carbinol] + CCN(CC)CCCCNc1ncc2cc(-c3cc(OC)cc(OC)c3)c(NC(=O)NC(C)(C)C)nc2n1 [PD173074] (first compound 4 µM, partner dose 0.5 µM)	101	100	92.4	84.1	89.8	95.9	111	89.1	99.1	83
COCC[n+]1c2c(n(Cc3cnccn3)c1C)C(=O)c1ccccc1C2=O + O=S(=O)(c1ccccc1)N(CC(F)(F)F)c1ccc(C(O)(C(F)(F)F)C(F)(F)F)cc1 [T0901317] (first compound 0.002 µM, partner dose 7 µM)	70.3	48.2	55.6	24.5	93	88	39.1	68.3	28	108
C#Cc1cccc(Nc2ncnc3cc(OCCOC)c(OCCOC)cc23)c1 [erlotinib] + C=CCn1c(=O)c2cnc(Nc3ccc(N4CCN(C)CC4)cc3)nc2n1-c1cccc(C(C)(C)O)n1 [MK1775] (first compound 4 µM, partner dose 0.1 µM)	63.2	53.7	81.7	45.6	71.5	77.7	83.9	68	52.2	71.4
OCc1c[nH]c2ccccc12 [Indole-3-carbinol] + O=C(Nc1cccc(Cl)c1)Nc1ncc(CCNc2ncnc3ccsc23)s1 [SNS314] (first compound 4 µM, partner dose 0.004 µM)	106	108	67	85.4	65.5	82.5	108	79.3	103	97.6
OCc1c[nH]c2ccccc12 [Indole-3-carbinol] + O=C(Nc1ccccc1)c1cc([N+](=O)[O-])ccc1Cl [GW9662] (first compound 4 µM, partner dose 10 µM)	81.5	97.4	102	90.6	67.4	84.5	90.6	81.1	84.9	74.6
O=C(CCCCCCC(=O)Nc1ccccc1)NO [vorinostat] + COc1ccc2c(c1)CCC1C2CCC2(C)C(NCCCCCCN3C(=O)C=CC3=O)CCC12 [U73122] (first compound 0.4 µM, partner dose 2 µM)	75.7	87.7	87.4	83.2	44.5	76.2	97.8	62.9	28.3	98.8
Nc1cccc2c1CN(C1CCC(=O)NC1=O)C2=O (stereo not given) [lenalidomide] + O=C1NC(=O)/C(=C/c2ccc(-c3ccc(F)cc3O)o2)S1 [AS252424] (first compound 5 µM, partner dose 5 µM)	93.6	91.5	105	105	92.3	94.8	93.1	86.8	89.8	105
C#Cc1cccc(Nc2ncnc3cc(OCCOC)c(OCCOC)cc23)c1 [erlotinib] + CCc1ccc(CCOc2ccc(CC3SC(=O)NC3=O)cc2)nc1 [pioglitazone] (first compound 4 µM, partner dose 10 µM)	81.9	76.2	86.1	73.6	88.7	95.1	68.6	94.1	76.4	75.8
OCc1c[nH]c2ccccc12 [Indole-3-carbinol] + COc1ccc(COc2ccc(Cc3cnc(N)nc3N)cc2OC)cc1 [GW2580] (first compound 4 µM, partner dose 5 µM)	108	88.5	85.9	92.9	97.2	93.6	86.5	77.8	93.6	80.9
Clc1ccc(Nc2nnc(Cc3ccncc3)c3ccccc23)cc1 [vatalanib] + Cc1cc(N2CCOCC2)cc2[nH]c(-c3c(NC[C@@H](O)c4cccc(Cl)c4)cc[nH]c3=O)nc12 [BMS536924] (first compound 10 µM, partner dose 1 µM)	80.1	92.3	80.1	97.3	68.4	71.4	84.3	76.1	96.5	69.3
Clc1ccc(Nc2nnc(Cc3ccncc3)c3ccccc23)cc1 [vatalanib] + NC(=O)Nc1cc(-c2cccc(F)c2)sc1C(=O)N[C@H]1CCCNC1 [AZD7762] (first compound 10 µM, partner dose 0.1 µM)	61.8	63.5	68.7	61.9	73.9	63	85.8	59.9	31.1	93.3
OCc1c[nH]c2ccccc12 [Indole-3-carbinol] + CC(C)CCN1c2nc(Nc3cc(F)c(O)c(F)c3)ncc2N(C)C(=O)C1C [BID1870] (first compound 4 µM, partner dose 1 µM)	64.2	76.4	86	88.7	91.8	72	84.9	64.2	74.4	75.2
Cn1c(Nc2ccc(C(F)(F)F)cc2)nc2cc(Oc3ccnc(-c4ncc(C(F)(F)F)[nH]4)c3)ccc21 + O=C(Nc1cccc(Cl)c1)Nc1ncc(CCNc2ncnc3ccsc23)s1 [SNS314] (first compound 0.4 µM, partner dose 0.004 µM)	27.5	43.7	51.3	36.4	55.8	56	55.3	63	39.2	51.1
Nc1cccc2c1CN(C1CCC(=O)NC1=O)C2=O (stereo not given) [lenalidomide] + OCCn1cc(-c2cnc3nnn(Cc4ccc5ncccc5c4)c3n2)cn1 [PF04217903] (first compound 5 µM, partner dose 5 µM)	78.3	95.4	121	110	96.8	115	114	82.1	80.7	113
C#Cc1cccc(Nc2ncnc3cc(OCCOC)c(OCCOC)cc23)c1 [erlotinib] + CCN(CC)CCCCNc1ncc2cc(-c3cc(OC)cc(OC)c3)c(NC(=O)NC(C)(C)C)nc2n1 [PD173074] (first compound 4 µM, partner dose 0.5 µM)	77.8	74	93.2	59.5	57.7	78.7	36.7	75	64.8	82.1
OCc1c[nH]c2ccccc12 [Indole-3-carbinol] + CC1(C)NC(=O)N(c2ccc([N+](=O)[O-])c(C(F)(F)F)c2)C1=O [nilutamide] (first compound 4 µM, partner dose 5 µM)	97.5	106	91.9	104	79.7	94.4	109	100	133	92.2
Clc1ccc(Nc2nnc(Cc3ccncc3)c3ccccc23)cc1 [vatalanib] + Cc1ccc(NC(=O)c2cccc(N(C)C)c2)cc1NC(=O)c1ccc(O)cc1 [ZM336372] (first compound 10 µM, partner dose 10 µM)	77.7	68.9	72.2	85.6	67.7	55.6	62.4	72.5	75.6	75.6
C#Cc1cccc(Nc2ncnc3cc(OCCOC)c(OCCOC)cc23)c1 [erlotinib] + NC(=O)Nc1cc(-c2cccc(F)c2)sc1C(=O)N[C@H]1CCCNC1 [AZD7762] (first compound 4 µM, partner dose 0.1 µM)	70.8	66.2	79.6	51.2	80.8	53.2	95.8	73	42.7	86.4
